Data: PubChem BioAssay AID2147 (National Center for Advancing Translational Sciences (NCATS), 2009)
“And” between values parts separate entries of the source, which are not always exact repeats. Identical values can stand only once. In all, about 230,000 compounds went through this assay and about 3,600 (1.6%) were called active. Inconclusive results, whose numbers are uncertain, are shown with a selection of clear calls. Calls come from the whole dose curve; as a rule, active = well fitted inhibition curve with a large enough effect (not every such curve was filed as active); inconclusive = small, poorly fitted or top-dose-only effect, or another doubt; inactive = no such curve, though single readings can be large or run the other way. Potencies of inconclusive entries are doubtful fits and often do not repeat.

target: Lysine-specific demethylase 4E (Homo sapiens) (UniProt B2RXH2); test: qHTS Assay for Inhibitors of Human Jumonji Domain Containing 2E (JMJD2E); conditions: JMJD2E catalytic domain, FDH-coupled NADH fluorescence (FDH is formaldehyde dehydrogenase); series mostly up to 57.1 µM
Note: nearly all actives have a fitted effect of over 50% in size.
Potency is the fitted concentration of half-maximal effect; tags give direction and shape of the fitted curve.

Chain of UniProt B2RXH2 (B2RXH2 whole entry, looked up, the tested form may be a part): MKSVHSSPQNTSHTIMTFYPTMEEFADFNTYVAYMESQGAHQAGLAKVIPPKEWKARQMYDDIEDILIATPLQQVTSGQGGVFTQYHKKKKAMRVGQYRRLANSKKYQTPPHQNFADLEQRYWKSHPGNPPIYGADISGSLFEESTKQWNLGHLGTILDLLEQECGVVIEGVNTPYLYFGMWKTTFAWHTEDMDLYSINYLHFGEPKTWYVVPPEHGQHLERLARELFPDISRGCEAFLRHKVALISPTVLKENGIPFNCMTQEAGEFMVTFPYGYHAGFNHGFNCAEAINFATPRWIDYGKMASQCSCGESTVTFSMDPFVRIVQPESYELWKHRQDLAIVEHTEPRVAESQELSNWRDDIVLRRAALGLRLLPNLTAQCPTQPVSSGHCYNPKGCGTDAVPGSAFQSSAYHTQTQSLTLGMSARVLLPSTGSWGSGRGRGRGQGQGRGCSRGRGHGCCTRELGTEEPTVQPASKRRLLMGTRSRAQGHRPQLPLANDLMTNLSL

Row | Compound | Potency
1 | CCOC(=O)c1nn(-c2ccccc2)c(C#N)c1NC(=O)c1nn(CC)cc1Br | inconclusive: 35.5 µM [inhibitor, single point]
2 | CC(=O)c1cccc(NC(=O)Nc2cccnc2)c1 | inactive
3 | CC(C)c1nnc(NC(=O)CSc2nnc(NC(=O)c3c(F)cccc3F)s2)s1 | inconclusive: 28.2 µM [inhibitor, single point]
4 | CC(=O)Oc1ccc2c(=O)c(-c3ccccc3)c(C)oc2c1 | inconclusive: 31.6 µM [inhibitor, single point]
5 | O=Cc1ccc2noc(-c3ccc(Cl)cc3)c2c1 | inconclusive: 25.1 µM [inhibitor, single point]
6 | Cc1cc(OCC(=O)N2CCc3ccccc3C2)c2c(-c3ccccc3)cc(=O)oc2c1 | inconclusive: 39.8 µM [inhibitor, single point]
7 | CC(C)Cn1c(-c2ccco2)n[nH]c1=S | inconclusive: 28.2 µM [inhibitor, single point]
8 | Cc1ccc(SCc2[nH]nc3c2C(c2ccc(C)o2)C(C#N)=C(N)O3)cc1 (stereo unspecified) | inconclusive: 31.6 µM [inhibitor, single point]
9 | Cc1cccc2[nH]c3c(=O)n(CCN4CCNCC4)cnc3c12 | inconclusive: 14.1 µM [inhibitor, partial curve]
10 | CCCC(=O)NC(c1ccccc1OC)c1ccc2cccnc2c1O (stereo unspecified) | active: 31.6 µM
11 | O=c1nc(N/N=C/c2ccccn2)cn[nH]1 | active: 10 µM
12 | NC[C@@H]1O[C@H](C23CC4CC(CC(C4)C2)C3)Cc2c1ccc(O)c2O | active: 12.6 µM and active: 22.4 µM
13 | CCOc1cc(C=C(C#N)C#N)ccc1Oc1ccc([N+](=O)[O-])cn1 | inconclusive: 39.8 µM [inhibitor, single point]
14 | CN(C)NC(=S)NC(=O)C12CC3CC(CC(C3)C1)C2 | inactive
15 | Cc1cc(NS(=O)(=O)Cc2ccccc2)cc(C)c1OCC(=O)N1CCOCC1 | inactive
16 | O=C(NCCc1ccccn1)C(F)(F)C(F)(F)C(F)(F)C(F)(F)C(F)(F)C(F)F | inactive
17 | COc1ccc(C(=O)N/N=C/c2cc3ccccc3[nH]c2=S)cc1 | inconclusive: 31.6 µM [inhibitor, partial curve]
18 | CCOc1cc(/C=C2/C(=O)ON=C2C)ccc1OCc1ccccc1F | inconclusive: 39.8 µM [inhibitor, single point]
19 | COc1cc(C(O)CO)ccc1O (stereo unspecified) | inactive
20 | CCO/C(C)=N/n1c2nc3ccccc3nc2c2c(=O)n(C3CCCC3)c(C)nc21 | inconclusive: 22.4 µM [inhibitor, partial curve]
21 | COc1ccc(-c2[nH]c(-c3ccc(C)cc3)nc2SCC(=O)NC2CCCC2)cc1 | inactive
22 | CC(Sc1nnc(-c2ccc(Cl)cc2Cl)n1Cc1ccccc1)C(=O)Nc1nccs1 (stereo unspecified) | inactive
23 | Cc1cc2ccccc2n1CCNC(=O)COc1ccccc1 | inactive

Row | Compound | Potency
24 | Fc1ccc(-n2c(CN3CCCCC3)n[nH]c2=S)cc1 | inactive
25 | Cc1ccc(S(=O)(=O)n2nnc3ccccc32)c(C)c1C | inactive
26 | O=C(C1CCCN(Cc2ccccc2C(F)(F)F)C1)N1CCCCC1 (stereo unspecified) | inconclusive: 25.1 µM [inhibitor, single point]
27 | O=c1[nH]c(Nc2ccc(F)cc2)cc2ccccc12 | inconclusive: 28.2 µM [inhibitor, single point]
28 | COC(=O)C1=C(N)c2c(F)cccc2C1(C#N)c1ccccc1 (stereo unspecified) | inconclusive: 28.2 µM [inhibitor, partial curve]
29 | COc1ccc(CNC(=O)C(c2ccncc2)N(C(=O)Cc2cccs2)c2cccc(C)c2)cc1 (stereo unspecified) | inactive
30 | Cc1cc(C)cc(NC(=O)/C=C/c2ccc([N+](=O)[O-])s2)c1 | inactive
31 | COCCCNC(=O)C1CCN(c2nc(C)cc(C)n2)CC1 | inconclusive: 31.6 µM [inhibitor, partial curve]
32 | COc1ccc(N2CCN(C(=O)c3cn(C4CCCC4)c(=O)c4c3c3ccccc3n4C)CC2)cc1 | inconclusive: 39.8 µM [inhibitor, single point]
33 | O=C(NNC(=O)C1CCN(c2ncccn2)CC1)c1ccc(Cl)cc1 | inconclusive: 25.1 µM [inhibitor, single point]
34 | COc1ccc(N=C2SC(C(=O)Nc3ccc(F)cc3)CC(=O)N2C)cc1 (stereo unspecified) | inconclusive: 20 µM [inhibitor, single point]
35 | Oc1ccc(/C=N/Nc2cc(N3CCCC3)nc(N3CCCC3)n2)cc1O | active: 14.1 µM
36 | COc1ccccc1C(=O)NCc1ccc(-c2nc3ccccc3s2)cc1 | inconclusive: 39.8 µM [inhibitor, single point]
37 | CCC(=O)Nc1cc(NC(=O)CSc2ncc(-c3ccc(F)cc3)n2Cc2ccco2)ccc1C | inconclusive: 39.8 µM [inhibitor, single point]
38 | Cc1cc(=O)oc(C)c1C(=O)OCC(=O)c1ccc2ccccc2c1 | inconclusive: 39.8 µM [inhibitor, single point]
39 | COc1ccc(N=C2NC(=O)/C(=C/c3ccc(O)c(OC)c3)S2)cc1 | inactive
40 | CCN(CC)c1ccc(-c2nn3c(-c4ccccc4OC)nnc3s2)cc1 | inconclusive: 12.6 µM [inhibitor, partial curve]
41 | CC1CCC/C(=C(\C#N)c2nc(-c3cc4ccccc4oc3=O)cs2)C1 (stereo unspecified) | inconclusive: 28.2 µM [inhibitor, partial curve]
42 | CCCOC(=O)CSc1nc(N)c(C#N)c(CC)c1C#N | inconclusive: 39.8 µM [inhibitor, single point]
43 | CC(=O)Nc1ccc(-c2csc(Nc3ccc(Cl)cn3)n2)cc1 | inconclusive: 31.6 µM [inhibitor, single point]
44 | Cc1onc(-c2c(Cl)cccc2Cl)c1-c1nnc(-c2ccc(Cl)cc2)o1 | inconclusive: 28.2 µM [inhibitor, single point]
45 | O=S(=O)(NC1CCCCC1Oc1ccccc1)c1ccccc1 (stereo unspecified) | inactive
46 | CC(C)(C)NC(=O)CSc1nc(-c2ccccc2)c(-c2ccccc2)[nH]1 | inconclusive: 31.6 µM [inhibitor, partial curve]
